Test results taken from PubChem BioAssay AID1508642 (National Center for Advancing Translational Sciences (NCATS), 2021).
About 200 (0.47%) of roughly 43,000 compounds were called active. Roughly 12% stayed inconclusive and do not appear here. The call rests on the fitted dose curve; in most records, active means well fitted cell-killing curve with a large enough effect; inconclusive means small, poorly fitted or top-dose-only effect, or effect the other way; inactive means flat fitted curve, though single readings scatter. The list shows a part of the results.

Assay: Cell viability qHTS assay in S16 Pmp22-F2sN cells; further: nearly all actives have a fitted effect of over 65% in size
Conditions: S16 Pmp22-F2sN Schwann cells viability, CellTiter-Glo, 24 h; series mostly up to 57.5 µM; activity change, negative = cytotoxicity: at the top concentration
Outline: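 S16 Pmp22-F2sN Schwann cells (500-1,000/well) in phenol-red-free DMEM with 10% FBS received 23 nL compound by pin tool for 24 h at 37 °C. Viability was then read as CellTiter-Glo luminescence after 15 min at room temperature.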
On the % scale 0 is the no-effect control and ±100 the full control effect.

| Compound | activity change, negative = cytotoxicity |
| --- | --- |
| CCOc1ccc2c(c1)sc1nc(=O)n(-c3ccc(Cl)c(Cl)c3)c(=O)n12 | inactive: 11.6% |
| Cc1ccc(OCc2nc(-c3ccc(C(=O)N4CCN(c5cccc(C(F)(F)F)c5)CC4)cc3)oc2C)cc1 | inactive: -11.8% |
| CCOC(=O)CCn1cnc2onc(-c3cc(OC)ccc3Cl)c2c1=O | inactive: 9.05% |
| Cc1cccc(N2CCN(C(=O)c3cnn(-c4ccccc4Cl)c3C3CCN(C(=O)OC(C)(C)C)CC3)CC2C)c1 (stereo unspecified) | inactive: 2.43% |
| COc1cccc(CNC(=O)c2ccc(CNS(=O)(=O)c3ccc(C)cc3)cc2)c1 | inactive: -1.86% |
| CCN(c1ccccc1)S(=O)(=O)c1nnc(NC(=O)c2ccccc2)s1 | inactive: -11.9% |
| Cc1ccc(CNC(=O)Cn2c(=O)ccc3cc(S(=O)(=O)N4CCC(C)CC4)ccc32)cc1 | inactive: -8.06% |
| COc1ccc(-c2cc(C(=O)NC(C)c3ccccc3)c3cc(C(C)C)ccc3n2)cc1 (stereo unspecified) | inactive: -1.31% |
| CCOC(=O)c1c(NC(=O)c2cc(OCC)c(OCC)c(OCC)c2)sc2c1CCCCC2 | inactive: 2.97% |
| CCN(CC)CCNC(=O)C(=O)NCC(c1cccnc1)N1CCN(c2ccc(F)cc2)CC1 (stereo unspecified) | inactive: -24.6% |
| O=C(Nc1ccccc1C(F)(F)F)c1cc(-c2ccc3c(c2)OCCO3)on1 | inactive: 6.87% |
| COc1ccc(S(=O)(=O)NCCc2sc(-c3cccnc3)nc2C)c(F)c1 | inactive: 16.5% |
| CCc1ccc(C2c3c(oc4ccc(F)cc4c3=O)C(=O)N2CCc2ccc(OC)cc2)cc1 (stereo unspecified) | inactive: 9.2% |
| CC1CCc2c(sc3nnn(CCCCOc4ccc(Cl)cc4)c(=O)c23)C1 (stereo unspecified) | inactive: 11.3% |
| COc1ccc(CNCCCSc2nnnn2-c2ccccc2)cc1 | inactive: -6.84% |
| COc1ccc(NC(=O)CSc2oc(-c3ccc(F)cc3)nc2S(=O)(=O)c2ccc(C)cc2)c(OC)c1 | inactive: -26.7% |
| Cc1sc2c(c1C)c(=O)n(-c1ccc(Cl)cc1)c(=O)n2Cc1cc(=O)n2cc(Br)ccc2n1 | inactive: 10.5% |
| CCc1cccc(CC)c1NC(=O)C1CCC(CNS(=O)(=O)c2cccc3nsnc23)CC1 (stereo unspecified) | inactive: -5.51% |
| COc1ccc2cc3cc(C(=O)Nc4cc(C)c(Cl)cc4OC)oc3nc2c1 | inactive: 0.967% |
| COc1cc(NC(=O)C2CCN(S(=O)(=O)c3ccc4c(c3)CCCC(=O)N4)CC2)cc(OC)c1 | inactive: 14.7% |
| CCOc1ccccc1NC(=O)CSc1nc2c(sc3ccccc32)c(=O)n1CCCC(=O)NC1CCCC1 | inactive: 0.213% |
| CCc1ccc(S(=O)(=O)c2nnn3c2nc(N2CCOCC2)c2sccc23)cc1 | inactive: 2.91% |
| Cc1cc(-c2ccccc2)n2nc(-c3ccc(Cl)cc3)cc2n1 | inactive: 8.03% |

| Compound | activity change, negative = cytotoxicity |
| --- | --- |
| Cc1cc(Br)ccc1NC(=O)C1CCCN(S(=O)(=O)c2cccc3nonc23)C1 (stereo unspecified) | inactive: 13.1% |
| Cc1ccc(N2CC(c3nc(-c4ccc(Cl)cc4)no3)CC2=O)cc1F (stereo unspecified) | inactive: -0.668% |
| Cc1cc(N2CCC(C(=O)Nc3ccc(F)cc3C)CC2)n2nc(C)c(-c3ccc(Cl)cc3)c2n1 | inactive: -3.3% |
| CCc1ccc(NCc2cc3cc4c(cc3n(CC(=O)Nc3ccccc3OC)c2=O)OCCO4)cc1 | inactive: 6.62% |
| Cc1cc(NC(=O)Nc2nnc(N(C)C3CCCCC3)s2)ccc1Br | inactive: 3.34% |
| Cc1ccc2oc(C(=O)Nc3ccc(S(=O)(=O)N(C)c4ccccc4)cc3)cc(=O)c2c1 | inactive: 8.19% |
| Cc1ccc(CNC(=O)C2CCN(S(=O)(=O)c3cccc4nonc34)CC2)cc1 | inactive: -7.46% |
| Cc1nn(-c2ccccc2)c2c1cc1c(=O)[nH]c(=O)nc-1n2-c1cccc(Cl)c1 | inactive: 3.75% |
| Cc1cc(=O)c2cc(C(=O)Nc3ccc(C)c(C)c3)ccc2[nH]1 | inactive: 3.95% |
| COc1cc(Cl)c(C)cc1NC(=O)CSc1nc2c(c(=O)[nH]1)CCC2 | inactive: -3.68% |
| CCC(Sc1nc2ccncc2[nH]1)C(=O)Nc1cc(Cl)ccc1C (stereo unspecified) | inactive: 0.212% |
| O=C(c1ccc2c(c1)N(Cc1ccccc1F)C(=O)c1ccccc1S2(=O)=O)N1CCc2ccccc21 | inactive: 14.8% |
| Cc1cccc(NC(=O)Cn2ncc3c4ccccc4n(Cc4ccccc4)c3c2=O)c1C | inactive: 13.1% |
| Cc1ccc(S(=O)(=O)CCC(=O)Nc2ccc(OC(F)(F)F)cc2)cc1 | inactive: -17.9% |
| COc1ccccc1CNC(=O)c1c(O)nc2c(C)cccn2c1=O | inactive: 15.2% |
| CN(C)CCNC(=O)c1ccc2c(c1)NC(=O)C(CS(=O)(=O)Cc1cccc(Br)c1)N2 (stereo unspecified) | inactive: -0.901% |
| CC1CCN(S(=O)(=O)c2ccc3c(c2)c(=O)c(C(=O)NCCc2ccccc2)cn3C)CC1 | inactive: 4.71% |
| COc1ccccc1NC(=O)CCC(=O)N1CC(C)Oc2ccc(C)cc21 (stereo unspecified) | inactive: 0.228% |
| CCc1ccc(NC(=O)C2CCCN2S(=O)(=O)c2ccc3c(c2)n(C)c(=O)c(=O)n3C)cc1 (stereo unspecified) | inactive: -2.25% |
| COc1ccccc1CNC(=O)CN(C)c1nn2c(=O)cc(C)nc2s1 | inactive: -2.29% |
| CC(=O)c1ccc(NC(=O)CSc2nnc3ccc(-c4ccc(Br)cc4)nn23)cc1 | inactive: 0.304% |
| Cc1sc2ncn(CC(=O)Nc3cccc(C(F)(F)F)c3)c(=O)c2c1S(=O)(=O)N1CCN(C)CC1 | inactive: -3.22% |
| Cc1ccc(C(=O)c2c(N)c(C(=O)Nc3ccccc3Cl)c3ccccn23)cc1 | inactive: -2.6% |

| Compound | activity change, negative = cytotoxicity |
| --- | --- |
| COC(=O)CNC(=O)C1CCN(S(=O)(=O)c2cccc3nsnc23)CC1 | inactive: -0.03% |
| CCOc1ccc(OCC(=O)NCCS(=O)(=O)N2CCN(c3ccccc3F)CC2)cc1 | inactive: 2.33% |
| O=C(CN1C(=O)COc2ccc(Cl)cc21)Nc1cccc(F)c1 | inactive: 2.22% |
| CCN(CC)c1ccc2cc(-c3nc(-c4cccs4)no3)c(=O)oc2c1 | inactive: 0.0137% |
| Cc1ccc(-n2c(=O)c3c(cnn3C)n(CC(=O)Nc3ccc(C)cc3C)c2=O)cc1 | inactive: -2% |
| CC1=C(C(=O)Nc2ccc(C)cc2C)C(c2ccc([N+](=O)[O-])cc2)n2ncc(C(=O)Nc3ccc(F)cc3)c2N1 (stereo unspecified) | inactive: -15.2% |
| CN(c1ccc(F)cc1)S(=O)(=O)N1CCCC(C(=O)NCc2cccc(Br)c2)C1 (stereo unspecified) | inactive: 15.6% |
| Cc1c(C(=O)N2CCC(C)CC2)c(S(=O)(=O)NCc2ccc(Cl)cc2)c(C)n1C | inactive: -6.62% |
| Cc1ccccc1Cc1c(C)nc2nc(SCC(=O)N(C)c3ccccc3)nn2c1C | inactive: -28% |
| CC(C)c1ccc(NC(=O)Cn2cc(S(=O)(=O)Cc3cccc(Cl)c3)c3ccccc32)cc1 | inactive: 1.43% |
| COc1ccc(C(=O)Nc2nc3n(n2)C(c2ccccc2)C=C(c2ccccc2)N3)cc1 (stereo unspecified) | inactive: -26.5% |
| CCOC(=O)c1ccc(NC(=O)C(Cc2ccccc2)N2Cc3ccccc3C2=O)cc1 (stereo unspecified) | inactive: -5.42% |
| Cc1ccc(-c2nn3c(=O)cc(CN4CCN(C(=O)/C=C/c5ccccc5)CC4)nc3s2)cc1 | inactive: -7.21% |
| CCc1ccc(-c2cn3c(n2)sc2cc(C(=O)NCCC4=CCCCC4)ccc23)cc1 | inactive: -19% |
| CCOC(=O)c1ccc(NC(=O)CSc2cn(CC(=O)N3CCCC3)c3ccccc23)cc1 | inactive: -18.8% |
| CCCOc1ccc(C(=O)Nc2ccc3oc(-c4cccc(Cl)c4Cl)nc3c2)cc1 | inactive: 6.36% |
| COC(=O)c1ccc2c(c1)N(CC(=O)Nc1ccc(OC)c(Cl)c1)C(=O)c1ccccc1S2 | inactive: 8.82% |
| Cc1ccc(-n2nc3c(N4CCCC(C(=O)NCc5ccc(Cl)cc5)C4)nnc(C)c3c2C)cc1 (stereo unspecified) | inactive: 8.22% |
| CC(C)c1ccc(NC(=O)CSc2nc(=O)n(Cc3ccccn3)c3c2CCC3)cc1 | inactive: -1.2% |
| N#Cc1nc(COc2cccc(Cl)c2)oc1NCCc1ccccc1 | inactive: -21.9% |
| CCOc1ccccc1C(=O)N(Cc1cc(OC)c(OC)c(OC)c1)c1ccccn1 | inactive: 13% |
| CCCn1c(SCc2nc(-c3ccccc3OCC)no2)nnc1-c1ccc(Cl)cc1 | inactive: -15% |
| Cc1ccc(NC(=O)Cn2c(=O)n(Cc3nc(C)no3)c(=O)c3cc4c(cc32)OCO4)c(C)c1 | inactive: -0.514% |

| Compound | activity change, negative = cytotoxicity |
| --- | --- |
| COc1ccc(-c2cn3nc(N4CCCC(C(=O)Nc5cccc(OC)c5)C4)sc3n2)cc1 (stereo unspecified) | inactive: 9.34% |
| CCOCCCNC(=O)c1cc(Sc2cccc(Cl)c2)nc2ccccc12 | inactive: -1.22% |
| COc1cc2c(cc1OC)n(CC(=O)c1cccc(Cl)c1)c(=O)n1nc(CCn3nc(C)cc3C)nc21 | inactive: -2.72% |
| Cc1ccc(CC(=O)Nc2ccc3c(c2)N(C)C(=O)c2ccccc2S3)cc1 | inactive: -25.2% |
| O=C(CCN1C(=O)c2ccccc2Sc2ncccc21)Nc1ccc(F)cc1F | inactive: 1.23% |
| Cc1ccccc1C(=O)Nc1sc2c(c1C(=O)N1CCCCC1)CCC(C)C2 (stereo unspecified) | inactive: -16.6% |
| COc1ccc(C2NC(=O)NC(C)=C2C(=O)Nc2ccccc2)cc1OC (stereo unspecified) | inactive: -0.185% |
| COc1cccc(C(=O)N2c3ccc(C)cc3C(C)(c3ccccc3)CC2(C)C)c1 (stereo unspecified) | inactive: -1.13% |
| CCc1ccc(NC(=O)CSc2nc3c(oc4ccccc43)c(=O)n2-c2cccc(C)c2)cc1 | inactive: 4.44% |
| CCc1cccc(CC)c1NC(=O)C(Cc1ccccc1)NS(=O)(=O)c1cccc2nsnc12 (stereo unspecified) | inactive: -1.33% |
| COc1ccc(NC(=O)c2oc3ccccc3c2NC(=O)C23CC4CC(CC(C4)C2)C3)c(OC)c1 | inactive: 17.4% |
| COc1ccc(S(=O)(=O)NCCS(=O)(=O)N2CCN(c3ccccc3)CC2)cc1OC | inactive: -1.21% |
| Cc1ccc(NC(=O)c2oc3ccccc3c2NC(=O)c2ccc(F)c(F)c2)cc1 | inactive: 12.3% |
| CN1CCc2c(sc(NC(=O)CSc3ccc(F)cc3)c2-c2nc3ccccc3s2)C1 | inactive: 3.15% |
| CCN1C(C(=O)c2ccccc2)=C(OC(=O)COc2ccc(OC)cc2)c2ccccc2S1(=O)=O | inactive: -17.1% |
| Cc1ccc(CNC(=O)CCCCCn2c(=O)c3sccc3n(CC(=O)Nc3ccc(C)c(F)c3)c2=O)cc1 | inactive: 18.8% |
| CC(C)CN(CCCNC(=O)c1cc(=O)[nH]c2ccc(S(=O)(=O)N3CCCC3)cc12)CC(C)C | inactive: 7.4% |
| CCc1cnc2c(c1SCc1ccccc1C)c(=O)n(C)c(=O)n2C | inactive: 4.18% |
| Cc1ccc2cccc(NC(=O)c3cccc4c(Cl)cccc34)c2n1 | inactive: -4.46% |
| O=C(C1CCC(Cn2c(=O)c3sccc3n(Cc3ccccc3)c2=O)CC1)N1CCCCC1 (stereo unspecified) | inactive: -9.24% |
| Cc1ccc(C)c(N2CCN(C(=O)CCNS(=O)(=O)c3ccc4c(c3)CCN4C(=O)C3CC3)CC2)c1 | inactive: -18.1% |
| CCN(Cc1ccccc1)Cc1c(O)ccc2c(=O)c(-c3ccc(Cl)cc3)coc12 | inactive: 2.71% |
